# The supplement of paper PMC4166925
# ± gives the standard deviation of the averaged measurements. The full ranking holds about 33,000 sequences; the median of “E-score (dimensionless, -0.5 to 0.5)” is about -0.049, and the highest 2% start at about 0.37. This is one part of the list.
# Tested on: T1, PmTbr T-box DNA-binding domain (GST fusion)
# T1 sequence: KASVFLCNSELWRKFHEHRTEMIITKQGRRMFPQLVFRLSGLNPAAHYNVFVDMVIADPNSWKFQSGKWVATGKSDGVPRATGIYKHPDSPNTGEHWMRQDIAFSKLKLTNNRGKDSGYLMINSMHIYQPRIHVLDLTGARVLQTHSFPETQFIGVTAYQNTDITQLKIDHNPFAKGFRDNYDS
# Assay: PBM E-score of 8-mer (E-score (dimensionless, -0.5 to 0.5)); Tbr is Tbrain of the sea star Patiria miniata (Pm) or the sea urchin Strongylocentrotus purpuratus (Sp); higher = stronger binding preference; most listed sequences are background and not binding sites
# Details: the construct has about 5 more residues each side
# Method in brief: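 Primer extension turned Universal Agilent oligonucleotide arrays double-stranded. They were incubated with 200 nM protein in PBS (pH 7.5); the protein was a GST-fused Tbr T-box DNA-binding domain expressed in BL21 E. coli at 20 °C and purified on glutathione. Every ungapped 8-mer was scored from the scanned, quantified probe intensities, and the Universal PBM Analysis Suite gave each an enrichment E-score averaged over duplicate arrays.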
row,Sequence,PBM E-score of 8-mer
1,CAATCCGA,-0.15 ± 0.004
2,ACCAAAAC,-0.0763 ± 0.047
3,TAACACTA,0.382 ± 0.0057
4,ACCGGGAG,0.113 ± 0.065
5,ATGTCTCC,-0.212 ± 0.08
6,AGGACCGG,-0.31 ± 0.028
7,GGACCGGA,-0.0947 ± 0.0016
8,CGTGAAGA,0.226 ± 0.03
9,CTGGACGC,-0.114 ± 0.031
10,GAATATCA,0.085 ± 0.034
11,CCTTCTTA,0.0146 ± 0.068
12,GGCAGCCA,0.0449 ± 0.017
13,CACAACCG,0.07226 ± 0.00021
14,ATAAGATC,-0.269 ± 0.034
15,CAGATCCC,-0.0979 ± 0.11
16,ATGTGGAC,-0.118 ± 0.066
17,CTACTTGA,0.00296 ± 0.036
18,ATGGACGA,-0.13 ± 0.085
19,GCTCTAGA,-0.268 ± 0.07
20,TCGACCAA,-0.0504 ± 0.03
21,GTGGCGTA,0.137 ± 0.033
22,TATTCCAA,-0.171 ± 0.051

row,Sequence,PBM E-score of 8-mer
1,CTGTTACC,0.142 ± 0.028
2,GCGTAGAC,-0.0222 ± 0.11
3,ATGTTGTG,0.2029 ± 0.0011
4,ACCGGCGC,-0.0164 ± 0.044
5,ACCGCCAA,0.087 ± 0.033
6,CATTCTTA,-0.235 ± 0.007
7,AGGAACTG,-0.0228 ± 0.072
8,CGCCAAAA,0.167 ± 0.052
9,ACTTCGAC,0.14 ± 0.024
10,CATGCTGG,-0.269 ± 0.055
11,CTCTGATC,-0.3354 ± 0.0012
12,ATCCAAGA,-0.193 ± 0.0037
13,GTGGAATA,-0.0631 ± 0.11
14,ACTCCGCG,-0.0699 ± 0.048
15,GACGAGCA,-0.154 ± 0.0018
16,ACGACAGA,-0.056 ± 0.0035
17,TGAGATAA,0.13 ± 0.02
18,AGGGAATA,-0.0759 ± 0.021
19,TATATATA,-0.0971 ± 0.13
20,ATGCATGG,-0.144 ± 0.052
21,AGACCTCC,-0.42 ± 0.0099
22,CAAGCATC,-0.0899 ± 0.042

row,Sequence,PBM E-score of 8-mer
1,ATCTGGTA,-0.25 ± 0.032
2,GTAAGTTA,-0.201 ± 0.061
3,ACGTACGC,0.161 ± 0.033
4,CGTTATTA,-0.117 ± 0.038
5,ACAAGGAC,-0.212 ± 0.0072
6,CTCGTCTC,0.0625 ± 0.065
7,CTCTTCAG,-0.156 ± 0.04
8,GAAGTGGC,0.3 ± 0.026
9,GCCGTTTA,0.0685 ± 0.045
10,CCTACGGA,-0.208 ± 0.097
11,CGTTTGTA,-0.0191 ± 0.039
12,AGGCGCTG,0.202 ± 0.039
13,ATGTTCAC,0.287 ± 0.017
14,CCGACATC,-0.0298 ± 0.027
15,GAGAATCA,-0.0408 ± 0.031
16,TATCCGCA,-0.00417 ± 0.022
17,GATGTCAA,0.044 ± 0.022
18,ATTCCAGA,0.0397 ± 0.077
19,CATGGGGA,-0.242 ± 0.035
20,CATGCTCC,0.0189 ± 0.015
21,AGTGCGGG,0.095 ± 0.046
22,CGACCAAG,0.0345 ± 0.035

row,Sequence,PBM E-score of 8-mer
1,TGGAAAAA,-0.0885 ± 0.0069
2,AGTACTAG,-0.219 ± 0.06
3,AGAACAGA,-0.248 ± 0.027
4,CTTTTGAC,0.116 ± 0.077
5,CGATAAAA,0.195 ± 0.062
6,ACCCTTAC,0.0968 ± 0.058
7,CCTCAGGC,-0.268 ± 0.021
8,AACCTTGC,0.060455 ± 2.1e-05
9,CTTTCAAC,-0.0375 ± 0.03
10,CGGACTCC,-0.179 ± 0.019
11,AGGGTTAG,-0.0834 ± 0.083
12,GTCGTCCA,-0.0348 ± 0.01
13,ACATATGA,0.0313 ± 0.063
14,AAGACCGG,-0.225 ± 0.011
15,CGGTGAAC,-0.0742 ± 0.016
16,CACGTCTG,0.314 ± 0.025
17,CAGCTAGG,0.1627 ± 0.00036
18,ACGTCACA,0.258 ± 0.021
19,CGATATAG,-0.0783 ± 0.038
20,GCGGAACA,-0.013 ± 0.08
